{"source": "PubChem BioAssay AID686978", "about": "(National Center for Advancing Translational Sciences (NCATS), 2013)", "note": "Values joined by “and” are separate entries in the source; they are usually repeats but may differ in a detail not shown here. Identical values can stand only once. Hit rate of the full screen: of about 420,000 compounds, about 64,000 (15%) were called active. This list was built around the results that the source calls inconclusive (neither active nor inactive); the mix of calls is not that of the screen. Calls come from the whole dose curve; as a rule, active = well fitted inhibition curve with a large enough effect; inconclusive = small, poorly fitted or top-dose-only effect; inactive = flat fitted curve, though single readings scatter. Potencies of inconclusive entries are doubtful fits and often do not repeat. % is set by controls: 0 for no effect and ±100 for the full control effect; potency is the fitted concentration of half-maximal effect; tags give direction and shape of the fitted curve."}
{"test": "qHTS for Inhibitors of human tyrosyl-DNA phosphodiesterase 1 (TDP1): qHTS in cells in absence of CPT; note: nearly all actives have a fitted effect of over 55% in size", "details": "DT40 Tdp1-/- hTDP1 cells, no CPT, ATP luminescence, 48 h; activity change, negative = growth inhibition: at 46.2 µM (top of the series) unless noted", "summary_of_the_method": "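Camptothecin absent (DMSO only). Human TDP1-complemented DT40 knockout cells, 400 cells/well, 37 °C for minimum 48 hr; ATP measured via CellTiter-Glo, 30 min dark incubation, luminescence.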"}
{"smiles": "CC(C)c1ccc([C@@H]2O[C@H](CCc3ccccc3)CC3=C2C(=O)OC(C)(C)O3)cc1", "Potency": "active: 16.4 µM"}
{"smiles": "CCN1CCN(c2cc(C)c3cc(NC(=O)c4cc(Br)ccc4Cl)ccc3n2)CC1", "Potency": "inconclusive: 29.1 µM [inhibitor, single point]"}
{"smiles": "Cc1nc(SCC(=O)N2CCCc3ccccc32)c2oc3ccccc3c2n1", "Potency": "inconclusive: 18.4 µM [inhibitor, single point]"}
{"smiles": "COC(=O)c1c(C)[nH]c(C(=O)C(C)OC(=O)C2CC2C)c1C", "note": "(centres undefined)", "Potency": "inconclusive: 16.4 µM [inhibitor, single point]"}
{"smiles": "Cc1ccc(NC(=O)COC(=O)c2sccc2C)cc1S(=O)(=O)N1CCOCC1", "Potency": "inconclusive: 29.1 µM [inhibitor, single point]"}
{"smiles": "O=C1c2ccccc2CCC12N=NCC2c1ccc(Cl)cc1", "note": "(centres undefined)", "Potency": "inconclusive: 29.1 µM [inhibitor, single point]"}
{"smiles": "CCN1/C(=C/c2ccc3cc(C)ccc3[n+]2C)Sc2ccc3sccc3c21", "Potency": "active: 0.58 µM"}
{"smiles": "COc1cccc(C(=O)Nc2cccc(-c3nnc(-c4ccccc4)o3)c2)c1", "Potency": "active: 18.4 µM"}
{"smiles": "COc1cc(-c2nc3n(n2)C(c2ccc(F)cc2)C2=C(CCCC2=O)N3)cc(OC)c1OC", "note": "(centres undefined)", "Potency": "inconclusive: 29.1 µM [inhibitor, single point]"}
{"smiles": "O=C(NCc1nc2ccccc2[nH]1)c1ccc(Cl)c(S(=O)(=O)N2CCCC2)c1", "Potency": "inconclusive: 23.1 µM [inhibitor, single point]"}
{"smiles": "CCC(=O)N1c2ccccc2CC1C(=O)NCCN1CCN(c2cccc(Cl)c2)CC1", "note": "(centres undefined)", "Potency": "inconclusive: 29.1 µM [inhibitor, single point]"}
{"smiles": "COc1ccc(CNC(=O)C2CCN(S(=O)(=O)c3ccc(Br)s3)CC2)cc1", "Potency": "inconclusive: 14.6 µM [inhibitor, partial curve, poor fit]"}
{"smiles": "O=S(=O)(c1ccc(C2CCCCC2)cc1)N1CCCC1", "Potency": "inconclusive: 29.1 µM [inhibitor, single point]"}
{"smiles": "COc1ccc(C(CNC(=O)c2ccc(Cl)c(NC(=O)c3cccs3)c2)N2CCCC2)cc1", "note": "(centres undefined)", "Potency": "inconclusive: 23.1 µM [inhibitor, single point]"}
{"smiles": "COCCCNC(=O)CSc1nc(-c2ccc(OC)cc2)[nH]c1-c1ccc(OC)cc1", "Potency": "inactive"}
{"smiles": "CCCN(CCC)C(=O)Cn1c2ccccc2c2nc(=O)cc(C)n21", "Potency": "inconclusive: 18.4 µM [inhibitor, single point]"}
{"smiles": "COc1ccc2oc(=O)cc(CN3CCN(c4ccccc4OC)CC3)c2c1", "Potency": "inconclusive: 16.4 µM [inhibitor, single point]"}
{"smiles": "COc1cc(/C=N\\NC(=O)c2ccc(Cn3nc([N+](=O)[O-])c(Cl)c3C)o2)ccc1O", "activity change, negative = growth inhibition": "inconclusive: -30.3% [inhibitor]"}
{"smiles": "CCCCCCN1C[C@@H](n2cc(-c3ccc(F)cc3)nn2)[C@H](O)C[C@@H]1c1ccc(Cl)cc1", "Potency": "active: 11.6 µM"}
{"smiles": "CCOC(=O)C1=C(c2cccc(Oc3ccccc3)c2)NC(=S)NC1C", "note": "(centres undefined)", "Potency": "active: 23.1 µM"}
{"smiles": "Cc1nn(C)c(C)c1NC(=O)COc1ccccc1C#N", "Potency": "inactive"}
{"smiles": "CCOc1ccc(C(=O)NCC(=O)NCC(c2ccco2)N2CCCCC2)cc1OCC", "note": "(centres undefined)", "Potency": "inconclusive: 20.6 µM [inhibitor, single point]"}
{"smiles": "CC1CC(C)CN(S(=O)(=O)c2ccc3c(c2)CCN3C(=O)C2CC2)C1", "note": "(centres undefined)", "Potency": "inactive"}
{"smiles": "COc1ccc(C(=O)Nc2cc3cc(Cl)ccc3oc2=O)cc1OC", "Potency": "active: 2.91 µM"}
{"smiles": "CCCCOC(=O)C1CN(c2ccccc2)N=C1C(=O)OCC", "note": "(centres undefined)", "Potency": "active: 20.6 µM"}
{"smiles": "CCCCN1C2=NCCCN2c2ccccc21", "Potency": "inconclusive: 29.1 µM [inhibitor, single point]"}
{"smiles": "Cc1ccc(N(CC(=O)NCc2ccc(F)cc2)S(=O)(=O)c2c(C)n[nH]c2C)cc1", "Potency": "inactive"}
{"smiles": "CCNC(=S)Nc1ccc(N2CCCCC2)cc1", "Potency": "inconclusive: 29.1 µM [inhibitor, single point]"}
{"smiles": "O=C(CN1CCN(Cc2ccccc2)CC1)Nc1ccccc1-c1ccccc1", "Potency": "active: 29.1 µM"}
{"smiles": "CCCCn1nnnc1C(c1ccccc1)N1CCN(C(C)=O)CC1", "note": "(centres undefined)", "Potency": "inactive"}
{"smiles": "CCCC(=O)Nc1ccc(C(=O)NNC(=S)NC(=O)c2ccc(Br)o2)cc1", "Potency": "inconclusive: 29.1 µM [inhibitor, single point]"}
{"smiles": "CC(C#CCN1CCCCC1)OCCOCc1ccccc1", "note": "(centres undefined)", "Potency": "inconclusive: 23.1 µM [inhibitor, partial curve]"}
{"smiles": "Cc1nn(CC(C)C)c(Cl)c1C(=O)NCC(C)(C)N1CCOCC1", "Potency": "inactive"}
{"smiles": "O=C(O)Cn1nc(-c2ccccc2)ccc1=O", "Potency": "inactive"}
{"smiles": "CN(c1ccccc1)S(=O)(=O)c1ccc(NC(=S)Nc2ccccc2)cc1", "Potency": "inconclusive: 35.5 µM [inhibitor, single point]"}
{"smiles": "COc1ccc(CNC(=O)c2ccc(CS(=O)(=O)c3ccc(OC)cc3)o2)cc1", "Potency": "inactive and inconclusive: 25.9 µM [inhibitor, single point]"}
{"smiles": "CC(C)(C)OC(=O)NCCCCCC(=O)N/N=C/c1coc2ccccc2c1=O", "Potency": "inconclusive: 11.6 µM [inhibitor, single point]"}
{"smiles": "Cc1ccc(C2=NN=C(NC(=O)CSc3nnc4c5ccccc5n(C)c4n3)SC2)cc1", "Potency": "active: 9.2 µM"}
{"smiles": "CSCCC(NS(=O)(=O)c1ccc2c(c1)oc(=O)n2C)C(=O)NC1CCCCC1", "note": "(centres undefined)", "Potency": "inactive"}
{"smiles": "COc1ccc(S(=O)(=O)N2CCCCCC2)cc1C(=O)Nc1cccc(C)n1", "Potency": "inactive"}
{"smiles": "O=C(CCS(=O)(=O)c1ccccc1)N1CCN(c2ccc(F)cc2)CC1", "Potency": "inactive"}
{"smiles": "CCN(CC(=O)Nc1ccc(OC)c(OC)c1)CC(=O)Nc1ccccc1C(F)(F)F", "Potency": "inconclusive: 7.31 µM [inhibitor, partial curve]"}
{"smiles": "CCCCCCCN1CCN=C1Nc1ccccc1", "Potency": "active: 25.9 µM"}
{"smiles": "Cc1ccc(C(=O)CSc2nc3ccccc3c(=O)[nH]2)cc1C", "Potency": "inconclusive: 29.1 µM [inhibitor, single point]"}
{"smiles": "COc1ccc(/C=N/NC(=O)C2c3ccccc3-c3ccccc32)cc1", "Potency": "active: 20.6 µM"}
{"smiles": "CC(C)OCCCNC(=O)CCC(=O)NNc1nc2ccccc2c2nc(-c3ccccc3)nn12", "Potency": "inconclusive: 18.4 µM [inhibitor, single point]"}
{"smiles": "CC(C)C[C@H]1COc2cc(Br)ccc2S(=O)(=O)N1", "Potency": "inconclusive: 20.6 µM [inhibitor, single point]"}
{"smiles": "COc1cccc(-c2nn(C)c3sc(C(=O)NCc4ccc(C)cc4)cc23)c1", "Potency": "inconclusive: 29.1 µM [inhibitor, single point]"}
{"smiles": "CC(C)NC(=O)c1ccc(CS(=O)(=O)c2ccc(Br)cc2)o1", "Potency": "inactive"}
{"smiles": "CCN(CC)C(=O)c1sc2c(c1C)c(=O)n(-c1ccc(OC)cc1OC)c(=O)n2Cc1cc(C)ccc1C", "Potency": "inconclusive: 29.1 µM [inhibitor, single point]"}
{"smiles": "CCOc1ccc(NS(=O)(=O)c2ccc3[nH]cc(C(=O)NC(C)CC)c(=O)c3c2)cc1", "note": "(centres undefined)", "Potency": "active: 20.6 µM"}
{"smiles": "CCOC(=O)c1c(C)n(C)c2ccc(OCC(O)CNCCc3ccccc3)cc12", "note": "(centres undefined)", "Potency": "inconclusive: 29.1 µM [inhibitor, single point]"}
{"smiles": "CCN(CC)c1nc(N)nc(N(c2ccccc2)c2ccccc2)n1", "Potency": "inconclusive: 23.1 µM [inhibitor, partial curve]"}
{"smiles": "CC(=O)N1c2ccc(S(=O)(=O)NCc3ccc(Cl)cc3)cc2CC1C", "note": "(centres undefined)", "Potency": "active: 23.1 µM"}
{"smiles": "O=C(CN1CCC(C(O)(c2ccccc2)c2ccccc2)CC1)Nc1cc(Cl)ccc1Cl", "Potency": "active: 20 µM"}
{"smiles": "N#Cc1c(C(F)(F)F)cc(-c2ccco2)nc1SCc1ccncc1", "Potency": "inactive"}
{"smiles": "O=C(O)C1=C(C(=O)Nc2ccc(F)c(Cl)c2)CCCC1", "Potency": "inactive"}
{"smiles": "Cc1ccc(C)c(N2CCN(C3C(=O)Nc4ccccc4-n4nnnc43)CC2)c1", "note": "(centres undefined)", "Potency": "active: 16.4 µM"}
{"smiles": "O=[N+]([O-])c1ccc(Nc2ccccc2O)c2nonc12", "Potency": "inconclusive: 29.1 µM [inhibitor, single point]"}
{"smiles": "CCc1ccc(OCC(=O)Nc2ccc(-c3nc4ccccc4o3)c(O)c2)cc1", "Potency": "inconclusive: 20.6 µM [inhibitor, single point]"}
{"smiles": "CCC1(C)CC(=O)NC1=O", "note": "(centres undefined)", "Potency": "inactive"}
{"smiles": "CC(=O)Nc1ccc(OC(C)=O)cc1", "Potency": "inactive"}
{"smiles": "NC1CCN(c2c(F)cc3c(=O)c(C(=O)O)cn(C4CC4)c3c2Cl)C1", "note": "(centres undefined)", "Potency": "active: 6.51 µM"}
{"smiles": "CC(=O)Nc1ccccc1OCc1cc(=O)n2c(C)csc2n1", "activity change, negative = growth inhibition": "inconclusive: -33.9% [inhibitor]"}
{"smiles": "CC1CCCCC1NC(=O)C1CCN(S(=O)(=O)c2cccc3nonc23)CC1", "note": "(centres undefined)", "Potency": "inconclusive: 18.4 µM [inhibitor, partial curve]"}
{"smiles": "Cc1cccc(CN2CCN(C3CN(CCc4ccccc4)S(=O)(=O)C3)CC2)c1", "note": "(centres undefined)", "Potency": "inconclusive: 29.1 µM [inhibitor, single point]"}
{"smiles": "CC1CC(=O)Nc2ccccc2S1(=O)=O", "note": "(centres undefined)", "activity change, negative = growth inhibition": "inconclusive: -33.7% [inhibitor]"}
{"smiles": "CCOC(=O)[C@H]1[C@H]2COc3ccc(Br)cc3[C@@H]2N2C(=O)CN(Cc3ccc(OC)cc3)C(=O)[C@@]12C", "Potency": "inconclusive: 16.4 µM [inhibitor, single point]"}
{"smiles": "CCC(C)(CC(=O)Nc1nccs1)c1ccccc1", "note": "(centres undefined)", "Potency": "inconclusive: 32.6 µM [inhibitor, single point]"}
{"smiles": "CCOC(=O)c1cc(S(=O)(=O)NCc2ccc(F)cc2)[nH]n1", "Potency": "inconclusive: 29.1 µM [inhibitor, single point]"}
{"smiles": "COCCCNC(=O)CN(Cc1ccc(Cl)cc1)S(C)(=O)=O", "Potency": "inactive"}
{"smiles": "CC1CC(C)CN(C(=O)Cn2nnc(-c3ccc(Br)cc3)n2)C1", "note": "(centres undefined)", "Potency": "inactive"}
{"smiles": "Cc1c(C)c2cccnc2c2ncccc12", "Potency": "active: 1.46 µM"}
{"smiles": "Cc1cc(=O)n2nc(N3CCC(C(=O)NCc4ccccc4F)CC3)sc2n1", "Potency": "inactive"}
